# According to PubChem BioAssay AID1745853 (National Center for Advancing Translational Sciences (NCATS), 2022):
# Several values for one entry are separate records, joined by “and”; a condition that tells them apart may be missing. Equal values may be shown once. Some of the results follow. The main result of the screen is listed elsewhere. These columns were measured beside it and carry no call.
# Key:
# Test in all cases: Primary Screen for Target Class Profiling of Small Molecule Inhibitors of Methyltransferases
# [1] = target: Glycine N-methyltransferase (Homo sapiens) (UniProt Q14749); conditions: purified enzyme, MTase-Glo SAH luminescence; measured here: GNMT inhibition; at 40 µM; stronger effect = lower value
# Procedure, shortened: (§1)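 Each enzyme was assayed with SAM and its substrate. SAH formation detected by MTase-Glo luminescence; single-point 40 uM screen[…].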
# [2] = target: Guanidinoacetate N-methyltransferase (Homo sapiens) (UniProt Q14353); conditions: purified enzyme, MTase-Glo SAH luminescence; measured here: GAMT inhibition; at 40 µM; stronger effect = lower value
# Procedure, shortened: as §1
# [3] = target: Histamine N-methyltransferase (Homo sapiens) (UniProt P50135); conditions: purified enzyme, MTase-Glo SAH luminescence; measured here: HNMT inhibition; at 40 µM; stronger effect = lower value
# Procedure, shortened: as §1
# [4] = target: Nicotinamide N-methyltransferase (Homo sapiens) (UniProt P40261); conditions: purified enzyme, MTase-Glo SAH luminescence; measured here: NNMT inhibition; at 40 µM; stronger effect = lower value
# Procedure, shortened: as §1
# [5] = target: Phenylethanolamine N-methyltransferase (Homo sapiens) (UniProt P11086); conditions: purified enzyme, MTase-Glo SAH luminescence; measured here: PNMT inhibition; at 40 µM; stronger effect = lower value
# Procedure, shortened: as §1
# % is scaled to controls: 0 for no effect and ±100 for the full control effect.
SMILES,"activity change, negative = inhibition [1]","activity change, negative = inhibition [2]","activity change, negative = inhibition [3]","activity change, negative = inhibition [4]","activity change, negative = inhibition [5]"
Cc1ccc(Cn2nc3n(CCC(C)C)c(=O)c4ccc(C(=O)NCC(C)C)cc4n3c2=O)cc1,5.2%,0.33%,7.25%,4.6%,4.27%
COC(=O)c1ncn2c1C(=O)N(Cc1cccc(Cl)c1)C(C)(C(=O)NC1CCCCCC1)C2 (stereo not given),3.17%,0.549%,8.32%,7.53%,0.581%
Cn1c(CCC(=O)NC2CCOC2)nc2cc(S(=O)(=O)N3CCCC3)ccc21 (stereo not given),-1.18%,2.26%,0.086%,-2.07%,10.3%
Cc1ccccc1Cn1nc2n(C)c(=O)c3ccc(C(=O)NC4CCCCC4)cc3n2c1=O,2.66%,0%,9.09%,1.88%,3.1%
Cc1cc2c(cc1S(=O)(=O)Nc1ccc(F)cc1)n(C)c(=O)n2C,10.8%,0%,9.21%,-0.7%,4.11%
CCc1ccccc1N1C(=O)c2cc(C(=O)OC)nn2CC1(C)C(=O)NC1CCCCCC1 (stereo not given),0.73%,0.685%,2.21%,-0.869%,-0.701%
COc1cccc(C(=O)Cn2nc3n(Cc4ccc(C)cc4)c(=O)c4ccccc4n3c2=O)c1,0.544%,0.049%,2.03%,-1.37%,-0.442%
C/C(=N\O)c1ccc(OCC(=O)N2CCCCC2)cc1,0.311%,7.3%,3.29%,-11.3%,-3.89%
COCCN1Cc2ccc(NCC(C)C)nc2C(C)(C(=O)NC2CCC2)C1 (stereo not given),-8.22%,-2.92%,-4.46%,-15.7%,-15.3%
COc1ccc(OC)c2c1cc1n2CC(C)(C(=O)NC2CCCC2)N(Cc2cccnc2)C1=O (stereo not given),5.15%,0%,10.8%,6.35%,2.6%
COCCN1C(=O)CCc2cc(NC(=O)c3ccc(Cl)s3)ccc21,-6.47%,-4.75%,-8.08%,-7%,-2.02%
O=S(=O)(c1ccc(Cl)c(-c2nnc(-c3ccccc3)o2)c1)N1CCN(c2ccc(F)cc2)CC1,15.6%,2.15%,13.4%,7.19%,10.2%
CC(C(=O)N1CCN(c2ccccn2)CC1)n1ccc2cc(S(=O)(=O)N3CCCC3)ccc21 (stereo not given),-0.389%,0%,-0.727%,0.501%,2.36%
CC(C)NC(=O)c1ccc2c(=O)n(Cc3ccccc3)c3nnc(SCC(=O)c4ccccc4)n3c2c1,7.3%,0.736%,11.7%,7.39%,8.93%
CCCS(=O)(=O)N1C[C@@H](Oc2ccccc2)C[C@@H]1C(=O)NCCOC,-4.73%,-4.47%,-1.07%,-8.35%,-7.88%
Cc1ccc([S+](=O)([O-])NCCNC(=O)c2ccc(-c3cccc(C(F)(F)F)c3)cc2)cc1,-3.06%,-5.78%,0.786%,-1.05%,-2.46%
Cc1cc(F)ccc1S(=O)(=O)N1C[C@H](C2CC2)[C@@H](N)C1,-4.01%,-4.06%,-0.707%,-2.99%,-9.23%

SMILES,"activity change, negative = inhibition [1]","activity change, negative = inhibition [2]","activity change, negative = inhibition [3]","activity change, negative = inhibition [4]","activity change, negative = inhibition [5]"
COC(=O)c1ncn2c1C(=O)N(Cc1ccccc1OC)C(C)(C(=O)NC1CCCCCC1)C2 (stereo not given),-0.373%,3.12%,-1.45%,-3.09%,0.998%
CC1CCCC(NC(=O)C2(C)Cn3c(ccc3-c3ccco3)C(=O)N2Cc2cccnc2)C1C (stereo not given),2.3%,1.36%,10.9%,6.73%,5.08%
COC(=O)[C@@H](Cc1c[nH]c2ccccc12)NC(=O)[C@@H]1CN(C(=O)c2cccnc2)CCN1C(=O)NC(C)C,-7.5%,-5.45%,-2.96%,-7.2%,-4.46%
CN(C)c1ccc2c(c1)OC(N)=C(C#N)C2c1cccc(C(F)(F)F)c1 (stereo not given),-7.64%,5.35%,-6.21%,-29.2%,-13.3%
COCCC1(NC(=O)C2CC2)CCN(C(=O)C2CC2)CC1,0.506%,-0.685%,0.151%,-2.17%,-4.34%
C=C1Cc2c(Cl)cc3[nH]c4c5c3c2[C@@]2(O)[C@@H]1C[C@@H]2C(C)(C)O[C@H]5C1CC[C@@]2(O)[C@@]35O[C@@H]3[C@H]3OC(C)(C)[C@H]3O[C@H]5CC[C@]2(C)[C@@]41C (stereo not given in full),0.027%,9.63%,2.88%,-4.88%,4.79%
COc1ccc(N2CCN(CCCNC(=O)CCc3nnc4n(CC(C)C)c(=O)c5ccccc5n34)CC2)cc1,-9.6%,1.11%,-4.09%,-7.42%,-6.02%
C/C=C1/[C@H](O[C@@H]2O[C@H](CO)[C@@H](O)[C@H](O)[C@H]2O)OC=C(C(=O)OC)[C@H]1CC(=O)O[C@@H]1O[C@H](CO)[C@@H](O)[C@H](O)[C@H]1O,2.28%,5.72%,4.84%,-6.25%,2.72%
CCCCOc1ccc(CNC(=O)c2cc3n(n2)CC(C)(C(=O)NCc2ccc(F)cc2)N(C)C3=O)cc1 (stereo not given),-2.81%,-0.186%,-8.96%,-3.34%,-2.6%
CN(Cc1ccco1)C(=O)Cn1c(=O)oc2cc(S(=O)(=O)NCc3ccccc3)ccc21,-6.06%,3.49%,-6.21%,5.13%,-8.83%
CCC(C)NC(=O)c1ccc2c(=O)n(C(C)C)c3nn(CC(=O)c4cccc(Cl)c4)c(=O)n3c2c1 (stereo not given),5.32%,0%,7.17%,-1.31%,3.44%
O=C(Nc1ccccc1Cl)c1cnc2ccc(C3CCNCC3)cn12,-5.21%,1.45%,-17.8%,-13%,-3.98%
CC(C)c1c(C(=O)Nc2ccccc2)c(-c2ccccc2)c(-c2ccc(F)cc2)n1CC[C@@H](O)C[C@@H](O)CC(=O)O,-10.7% and 0.063%,2.63% and -2.6%,-2.1% and 12%,-6.84% and -8.59%,3.35% and 4.09%
CC(=O)O[C@@H]1[C@@H](O)[C@H](O[C@H]2CC[C@]34C[C@]35CC[C@]3(C)[C@@H]([C@@]6(C)CC[C@@H](C(C)(C)O)O6)[C@@H](O)C[C@@]3(C)[C@@H]5C[C@H](O[C@@H]3O[C@H](CO)[C@@H](O)[C@H](O)[C@H]3O)[C@H]4C2(C)C)OC[C@H]1O,-0.471%,13.9%,4.06%,8.69%,6.83%
Cc1ncc(-c2nc3cc(S(=O)(=O)NC(C)C)ccc3n2C(C)C)cn1,-4.38%,-6.35%,-1.97%,-12%,-5.82%
CNS(=O)(=O)c1ccccc1Nc1nc(Nc2ccc(N3CCN(C)CC3)cc2OC)ncc1Cl,-17.7%,14.8%,-37.9%,-14.8%,-5.61%
CN(C(=O)Cn1nc2n(C)c(=O)c3ccc(C(=O)NC4CCCCC4)cc3n2c1=O)c1ccccc1,-5.22%,3.62%,1.81%,-0.983%,0.689%
